# Results taken from PubChem BioAssay AID485367 (National Center for Advancing Translational Sciences (NCATS), 2010).
# Hit rate of the full screen: of about 330,000 compounds, about 560 (0.17%) were called active. Inconclusive means that the source gave no clear call. Such entries were picked first, then a sample of the others. The call rests on the fitted dose curve; in most records, active means well fitted inhibition curve with a large enough effect; inconclusive means small, poorly fitted or top-dose-only effect, or effect the other way; inactive means flat fitted curve, though single readings scatter. No potency is given beside an inconclusive call; the fits are too rough.
# Biological target: ATP-dependent 6-phosphofructokinase (Trypanosoma brucei brucei) (UniProt O15648)
# Sequence of UniProt O15648 (O15648 whole entry, looked up): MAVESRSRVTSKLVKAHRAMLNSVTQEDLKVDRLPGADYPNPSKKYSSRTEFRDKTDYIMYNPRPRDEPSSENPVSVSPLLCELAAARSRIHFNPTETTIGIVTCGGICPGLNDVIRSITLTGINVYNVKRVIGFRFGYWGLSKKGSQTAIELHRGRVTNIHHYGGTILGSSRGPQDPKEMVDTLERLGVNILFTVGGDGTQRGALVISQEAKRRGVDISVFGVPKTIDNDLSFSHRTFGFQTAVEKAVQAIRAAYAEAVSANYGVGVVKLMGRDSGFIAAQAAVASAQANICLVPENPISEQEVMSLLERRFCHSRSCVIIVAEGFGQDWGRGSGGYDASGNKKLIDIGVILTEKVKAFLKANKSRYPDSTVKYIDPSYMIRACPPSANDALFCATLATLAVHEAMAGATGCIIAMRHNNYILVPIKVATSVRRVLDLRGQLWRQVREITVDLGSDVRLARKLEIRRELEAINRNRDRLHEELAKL
# Assay: qHTS Assay to Find Inhibitors of T. brucei phosphofructokinase; further: nearly all actives have a fitted effect of over 60% in size
# Conditions: T. brucei PFK, ADP-Glo luminescence; activity, negative = inhibition: at 57.5 µM (top of the series)
# Description: NIH Molecular Libraries Probe Production Network [MLPCN] NIH Chemical Genomics Center [NCGC] Grant: 1 R03 MH092153-01 PI Name: Malcolm Walkinshaw, University of Edinburgh NCGC Assay Overview: Various species of the protozoan family Trypanosomatidae are responsible for a range of serious human diseases in tropical and subtropical areas of the world. […] Many of the disorders caused by trypanosomatids are fatal if left untreated, but most currently used drugs are inefficient and toxic. […] Oxidative metabolism involving the mitochondrial tricarboxylic acid cycle and oxidative phosphorylation are repressed in these parasites, and recent RNA interference (RNAi) experiments have shown that even partial depletion of certain individual glycolytic enzymes can lead to the death of cultured parasites. One such glycolytic enzyme, phosphofructokinase (PFK), catalyzes the formation of fructose-1,6-bisphosphate (F1,6BP) and ADP from fructose-6-phosphate (F6P) and ATP, and in many metabolic circumstances makes an important contribution to the control of flux through the glycolytic pathway. As a specific glycolytic target, PFK is particularly attractive as it catalyzes the first irreversible step in glycolysis, and structural and kinetic studies have shown very substantial and essential differences from corresponding host enzymes, allowing for the discovery of parasite-selective inhibitors. The goal of this screen is to find small-molecule inhibitors of T. brucei PFK using a biochemical assay that measures PFK activity as a function of ADP production. A luminescence-based assay for T. brucei PFK activity has been developed which uses luciferase to detect production of ADP. Traditional luciferase-based nucleotide detection reagents rely on ATP production as a direct substrate for the luciferase reaction; however, PFK catalyzes the transfer of a phosphate from ATP to F6P, resulting in the net depletion of ATP. To directly measure the ADP product of the PFK reaction, we used the ADP-Glo detection kit (Promega), which utilizes two separate reactions to 1) deplete all remaining uncatalyzed ATP and 2) convert all remaining ADP to ATP, which is then detected through a traditional luciferase-coupled reaction. Compounds were screened as a concentration-titration series that ranged from 57 uM to 0.7 nM.
# NCGC Assay Protocol Summary: NCGC Assay Protocol Summary: Substrate buffer was dispensed into white, solid 1536-well plates at 3uL/well in 0.1M triethanolamine (TEA) buffer, pH 8.0, containing final concentrations of 5 mM MgCl2, 0.01% Tween20, 0.5 mM fructose-6-phosphate (F6P) and 0.1mM ATP. Then, 23 nL of compounds or DMSO were delivered to each well using a pin tool. One uL T. brucei PFK (0.1M TEA, 0.01% Tween20, 0.1% bovine serum albumin (BSA) and 1.25nM PFK, final concentrations) was then dispensed, and plates were incubated at room temperature for 45 min. The luminescent detection reagent, ADP-Glo (Promega), was then added in two steps: the first reagent, ADP-Glo (which converts remaining uncatalyzed ATP), was added at 2.5uL/well and incubated for ten minutes at room temperature, and the second component, Kinase Detection reagent (which converts ADP to ATP as a substrate for luciferase-based luminescence), was added immediately after at 5uL/well, followed by one final ten minute room temperature incubation. The plates were measured on a ViewLux plate reader for luminescent signal using a clear filter with a one second exposure. The %Activity was determined from the corrected luminescence values. As no specific T. brucei PFK inhibitors have been identified in the literature, 1x (1.25nM) and 0x PFK enzyme controls (untreated) were included to normalize %Activity of identified inhibitors; 0x enzyme values corresponded to 100%Activity (full inhibition), while 1x PFK enzyme values were used to normalize 0%Activity (no inhibition). Concentration-response curves were fitted to the signals arising from the resulting luminescence. […]
# Potency means the concentration at half of the fitted maximal effect; tags describe the fitted curve by direction and shape.
Compound,Potency,"activity, negative = inhibition"
CC1CN(c2ccc([N+](=O)[O-])cc2Cl)CCN1 (configuration not stated),active: 9.53 µM,
C/C=C1/CN2C3CC1C(CO)(C(=O)OC)C2Cc1c3n(C)c2ccccc12 (configuration not stated),,inactive: -4.24%
Cc1cc(/C=C2/C(=O)NC(=O)N(Cc3ccco3)C2=O)c(C)n1-c1ccc(C(=O)O)cc1,"inconclusive [falling, single point]",
COc1cc(CNC(=O)CCCC/C=C/C(C)C)ccc1O,"inconclusive [falling, single point]",
Cc1cccc(-n2c(O)c(/C=C3/C(c4ccccc4)=Nc4ccccc43)c(=O)[nH]c2=O)c1,,inactive: -16%
O=C(CCC(=O)N1CCOc2ccc(Cl)cc21)N1CCC2(CC1)OCCO2,"inconclusive [falling, single point]",
CSc1ccc(C(c2c(O)c3ccccc3oc2=O)c2c(C)n(C)n(-c3ccccc3)c2=O)cc1 (configuration not stated),,inactive: 0.543%
CC(=O)N1N=C(c2cccnc2)CC1c1ccccc1O (configuration not stated),,inactive: -0.203%
COc1ccc(OCCOc2cccc(C=C3C(=O)NC(=O)NC3=O)c2)cc1,,inactive: 1.38%
O=C(N/N=C/c1ccco1)C1COc2ccccc2O1 (configuration not stated),"inconclusive [falling, partial curve]",
CN1C(=O)CN=C(c2ccc(Cl)cc2)c2cc(Cl)ccc21,,inactive: 0.618%
Cc1ccc(C(=O)Nc2cccc3[nH]c(C(F)(F)F)nc23)cc1,"inconclusive [falling, partial curve]",
Oc1cc2c(cc1O)C1c3ccc(O)c(O)c3OCC1(O)C2 (configuration not stated),"inconclusive [falling, full curve]",
O=C(CNC(=O)c1cccs1)OCC(=O)c1ccc([N+](=O)[O-])cc1,"inconclusive [falling, full curve]",
O=C(O)c1ccc(-n2c(O)c(/C=C3\C=Nc4ccccc43)c(=O)[nH]c2=O)cc1,"inconclusive [activator, single point]",
O=C(NCCS(=O)(=O)N1CCN(c2cccc(Cl)c2)CC1)c1ccc2c(c1)OCO2,"inconclusive [falling, partial curve]",
Cc1cccc(-n2c(-c3cccs3)nc3ccccc3c2=O)c1,"inconclusive [falling, single point]",
O=C(Cc1ccc(Cl)c(Cl)c1)Nc1cccc2ncccc12,active: 10.7 µM,
CCN(CC)c1ccc(C=C2C(=O)NC(=S)NC2=O)cc1,"inconclusive [falling, single point]",
COc1ccccc1OCCNC(=O)Cc1ccc(Cl)c(Cl)c1,"inconclusive [falling, partial curve]",
COC(=O)C1=C(c2ccc(C(C)=O)cc2)C[C@@H]2CC[C@H]1N2C(=O)N1CCCCC1,,inactive: 2.07%
COc1cc(C=C2C(=O)NC(=O)NC2=O)ccc1OS(=O)(=O)c1ccccc1[N+](=O)[O-],,inactive: 0.495%
CCN(CC)CCN=Cc1c(O)n(CCc2ccccc2)c(=O)[nH]c1=O,"inconclusive [falling, single point]",
O=C(Cc1ccc(Cl)c(Cl)c1)Nc1cccnc1,active: 15.1 µM,
Cc1ccc(N2C(=O)NC(=O)/C(=C\C=C\c3ccco3)C2=O)cc1,"inconclusive [falling, single point]",
CCc1ccccc1NC(=O)CNCc1ccccc1,,inactive: -2%

Compound,Potency,"activity, negative = inhibition"
COc1cccc(OP(=O)(Nc2ccccc2)Oc2cccc(OC)c2)c1,,inactive: -1.23%
COc1ccc(CCNCc2cccc(C(F)(F)F)c2)cc1OC,"inconclusive [falling, single point]",
O=c1c2ccccc2[se]n1-c1ccccc1,active: 4.78 µM,
Cc1cccc(OCC(=O)N2CCN(Cc3ccc([N+](=O)[O-])cc3)CC2)c1,,inactive: -0.621%
Cc1ccnc(-n2c(C)cc(C=C3C(=O)N(C)C(=S)N(C)C3=O)c2C)c1,,inactive: -1.07%
Cc1[nH]c(=S)c(C#N)c2c1CCCC2,"inconclusive [falling, partial curve]",
Cc1cccc(N2C(=O)NC(=O)/C(=C\C=C\c3ccco3)C2=O)c1,"inconclusive [falling, partial curve]",
O=S(=O)(c1ccc(Cl)cc1)N1CCCCC1c1cccnc1 (configuration not stated),,inactive: 2.39%
C[C@]12C[C@@H](O)[C@H](O)CC1=CCC1C2CC[C@@]2(C)C1CC[C@@H]2O (some centres not stated),,inactive: -3.45%
COc1ccc(N2C(=O)/C(=C/C=C/c3ccccc3[N+](=O)[O-])C(=O)NC2=S)cc1,,inactive: 25.6%
O=c1[nH]sc2cc(F)ccc12,"inconclusive [falling, partial curve]",
CNC(=O)CSc1nnc(-c2cc(C)cc(C)c2)o1,"inconclusive [falling, single point]",
N#CC(C#N)=Cc1ccc(O)c(O)c1,"inconclusive [falling, single point]",
O=C1CN=C(c2ccc[nH]2)c2cc(Cl)ccc2N1,,inactive: -4.87%
CCN1CCN(Cc2nc3ccc([N+](=O)[O-])cc3c(=O)n2-c2ccccc2F)CC1,,inactive: -12%
CC(Cc1ccccc1)NC(=O)Cc1ccc([N+](=O)[O-])cc1 (configuration not stated),"inconclusive [falling, single point]",
COc1cccc(N2C(=O)NC(=O)/C(=C/c3ccc4c(c3)Cc3ccccc3-4)C2=O)c1,,inactive: 0.475%
Cc1ccc(S(=O)(=O)N2CCN(C(=O)COC(=O)Cc3ccccc3)CC2)c(C)c1,,inactive: -1.6%
N=Cc1c(O)n(-c2ccccc2)c(=O)n(-c2ccccc2)c1=O,"inconclusive [activator, single point]",
Cc1c(C)c2ccc(OCC(=O)N3CCN(Cc4ccccc4)CC3)cc2oc1=O,,inactive: 6.48%
Cc1cccc(-n2c(C)nc3ccccc3c2=O)n1,,inactive: -0.847%
O=c1[nH]c(=O)n(Cc2ccc(F)cc2)c(O)c1/C=N/Nc1ccccc1,,inactive: -2.08%
COc1cccc(CCNCc2cccc(C(F)(F)F)c2)c1,"inconclusive [falling, partial curve]",
Fc1ccc(NC(=S)Nc2ccc(F)c(Cl)c2)cc1Cl,"inconclusive [falling, partial curve]",
Cc1ccc(N2C(=O)NC(=O)/C(=C\c3cn(CC(=O)O)c4ccccc34)C2=O)cc1,,inactive: 9.03%
O=[N+]([O-])c1cn(Cc2ccc(Cl)cc2)cn1,"inconclusive [falling, partial curve]",

Compound,Potency,"activity, negative = inhibition"
Cc1ccc(-c2cn3c(=S)[nH]nc3s2)cc1,"inconclusive [falling, full curve]",
CN(C)C(=O)Oc1ccc([N+](=O)[O-])cc1,,inactive: 0.818%
CC(C)c1ccc(NC(=O)CCNC(=O)N2C[C@H]3C[C@@H](C2)c2cccc(=O)n2C3)cc1,,inactive: 0.124%
COC(=O)c1ccc(NC(=O)CSc2nc3ccc(N4C(=O)C5C6C=CC(C6)C5C4=O)cc3s2)cc1 (configuration not stated),,inactive: 7.1%
CC(C)(C)c1cc(OC(=O)Cc2ccccc2)ccc1O,,inactive: 0.171%
N#Cc1ccc(NC(=O)CN2CCCC2)cc1Cl,,inactive: -0.915%
CN1CCC2(CC1)C(C#N)=C(N)NC(S)=C2C#N,inactive,
O=C1CC(N2CC=C(c3ccc(F)cc3)CC2)C(=O)N1c1ccc(F)cc1 (configuration not stated),,inactive: -1.17%
CS(=O)(=O)NNC(=O)C1Cc2c(ccc3ccccc23)O1 (configuration not stated),"inconclusive [activator, partial curve]",
C[C@@H]1O[C@@H](O[C@@H]2C=C3CCC4C(CC[C@]5(C)[C@@H](c6ccc(=O)oc6)CC[C@]45O)[C@@]3(C)CC2)[C@H](O)[C@H](O)[C@H]1O (some centres not stated),,inactive: 2.94%
CCCC(C)c1nnc(NC(=O)CCS(=O)(=O)c2ccccc2)s1 (configuration not stated),"inconclusive [falling, full curve, poor fit]",
CCn1ncc(-c2ccnc3cc(C(=O)O)nn23)c1C,"inconclusive [falling, single point]",
COc1ccc(-c2cc(=NCCC(=O)O)c3cc(C)ccc3o2)cc1,"inconclusive [activator, partial curve]",
O=C(O)CCC(=O)NCCC1=c2ccccc2=N/C1=C\c1c(O)n(Cc2ccc(F)cc2)c(=S)[nH]c1=O,"inconclusive [falling, single point]",
CC1=NN(c2ccccc2)C(=O)/C1=C/c1c(O)[nH]c(=S)[nH]c1=O,"inconclusive [falling, single point]",
Cc1nc2ccc(P(=O)(O)O)cc2s1,"inconclusive [activator, single point]",
O=c1oc2ccccc2c(O)c1[C@H]1c2ccc(O)cc2Oc2c1c(=O)oc1ccccc21,"inconclusive [activator, partial curve]",
O=C1NC(=S)N(Cc2ccco2)C(=O)/C1=C\c1cccs1,"inconclusive [falling, single point]",
O=C(NCCc1c[nH]c2ccccc12)OCCSS(=O)(=O)O,active: 23.9 µM,
CC[C@H](C)/C=C(C)/C=C/C1=CC2=C(Cl)C(=O)[C@](C)(OC(C)=O)C(=O)C2=CO1,,inactive: 0.129%
CCCCCn1c(=O)c(C(=O)NCCc2ccccc2)c(O)c2ccccc21,,inactive: -1.3%
CCN(C(=O)Oc1ccccc1)c1ccc(C(O)(C(=O)OC)C(F)(F)F)cc1 (configuration not stated),,inactive: -0.983%
O=C(Nc1ccc(Cl)c([N+](=O)[O-])c1)c1ccncc1,"inconclusive [falling, partial curve]",
COc1ccccc1N1C(=O)NC(=O)/C(=C/c2ccc([N+](=O)[O-])s2)C1=O,"inconclusive [falling, single point]",
O=C(O)c1ccc2c(c1)C1C(Cl)C(Sc3ccccc3[N+](=O)[O-])CC1C(c1cccc([N+](=O)[O-])c1)N2 (configuration not stated),"inconclusive [activator, single point]",
